Laboratory results: PubChem BioAssay AID686971 (National Center for Advancing Translational Sciences (NCATS), 2013)
The campaign covered roughly 360,000 compounds. About 7,500 (2.1%) were called active. The inconclusive results got no clear call from the source; some entries with a clear call stand among them for comparison. Calls follow the shape of the dose curve; as a rule, active = well fitted cell-killing curve with a large enough effect; inconclusive = small, poorly fitted or top-dose-only effect, or effect the other way, or another doubt; inactive = no such curve, though single readings can be large or run the other way. No potency is given beside an inconclusive call; the fits are too rough. A structure can be active in one record and inactive in another.

Experiment: qHTS for induction of synthetic lethality in tumor cells producing 2HG: qHTS for the HT-1080-IDH1KD cell line
Settings: HT-1080 IDH1 knockdown viability, ATP luminescence, 48 h; series mostly up to 46.1 µM
Procedure, shortened: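 Viability of IDH1-knockdown HT-1080 fibrosarcoma cells was assessed by CellTiter-Glo after 48 h at 37 °C with titrated compound; concentration-effect curves were classified by fit quality and response size.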
Potency is read from the fitted curve at half-maximal effect; tags tell the direction and shape of the fitted curve.

SMILES | Potency
COc1cccc(C(c2nnnn2Cc2ccccc2)N2CCC3(CC2)C(=O)NCN3c2ccccc2)c1OC (stereo not drawn) | inconclusive [cytotoxic, single point]
CC(O)(CS(=O)(=O)c1cccc(C(F)(F)F)c1)C(=O)Nc1ccc(C(F)(F)F)cc1 (stereo not drawn) | inconclusive [cytotoxic, single point]
O=c1[nH]c2ccccc2n1C1CCN(Cc2ccc(-c3nc4ccccc4nc3-c3ccccc3)cc2)CC1 | inconclusive [cytotoxic, single point]
CCC1CN2CCc3cc(OC)c(OC)cc3C2CC1CC1NCCc2c1[nH]c1ccc(O)cc21 (stereo not drawn) | active: 0.184 µM
COC(=O)C(Cc1ccc(N(CCCl)CCCl)cc1)N=Cc1ccccc1O (stereo not drawn) | active: 25.9 µM
Cc1ccc(C(O)(c2ccc(C)c(C)c2)C2CN3CCC2CC3)cc1C (stereo not drawn) | inconclusive [cytotoxic, partial curve]
NC(=O)OCCSc1nnc(-c2cccc(C(N)=S)c2)o1 | inconclusive [cytotoxic, single point]
CCC(C)C1NC(=O)C2CCCN2C(=O)C(CC(C)C)OC(=O)CCNC(=O)C(C)N(C)C(=O)C(C(C)C)N(C)C1=O (stereo not drawn) | active: 23.1 µM
CCC(=O)[C@@H](C)[C@@H](O)[C@H](C)C[C@@H](C)C1OC(=O)C[C@@]2(O)CC=C(C)C(O2)C(C)=CCCC[C@H](O[C@H]2C[C@@H](OC(N)=O)[C@H](O)[C@@H](C)O2)C=C[C@H](C)C[C@H]1C (stereo partly drawn) | active: 20.6 µM
Cc1cc(NC(=O)CCl)on1 | inconclusive [cytotoxic, single point]
Cn1c(=O)c2cc(S(=O)(=O)Nc3ccc4c(c3)OCO4)ccc2n(C)c1=O | inconclusive [cytotoxic, partial curve]
O=c1[nH]cc(F)c(=O)[nH]1 | inconclusive [cytotoxic, partial curve]
COc1ccc(-n2nnnc2C(c2ccccc2)N2CCC3(CC2)C(=O)NCN3c2ccccc2)cc1 (stereo not drawn) | inconclusive [cytotoxic, single point]
Cc1nc(-c2coc3cc(OCC(=O)O)ccc3c2=O)cs1 | inconclusive [cytotoxic, single point]
CCCC[C@@H](C)C[C@@H](C)C(=O)N(C)[C@@H](CC(C)C)C(=O)N[C@H](C(=O)N(C)[C@H](C(=O)N1C[C@@H](O)C[C@H]1C(=O)N1C(=O)C=C[C@@H]1C)C(C)C)C(C)OC(C)=O (stereo partly drawn) | active: 0.116 µM
C=C(C)C(Cc1c(OC)ccc(C(=O)/C=C/c2ccc(O)cc2)c1O)OO (stereo not drawn) | inactive
COc1ccc2c3c1OC1C(=O)CC[C@@]4(O)[C@@H](C2)N(C)CC[C@]314 (stereo partly drawn) | active: 20.6 µM
CCOCC1(CCc2ccccc2)C(=O)NC(=S)NC1=O | inactive
COc1ccc(/C=C2/C(=O)N(Cc3ccco3)C(=O)N(C(C)C)C2=O)cc1 | inactive
O=C1NC(=O)C(=Cc2ccccc2OCCOc2ccc([N+](=O)[O-])cc2)C(=O)N1 | active: 18.4 µM
CC(C)c1oc(=O)cc2c1[C@@H](O)[C@H]1OC(=O)[C@@]3(C)C[C@@H](O)[C@@H](O)[C@@]2(C)C13 (stereo partly drawn) | active: 10.3 µM
COC(=O)C1=C(C)NC(C)=C(C(=O)OC)C1c1ccccc1[N+](=O)[O-] | active: 3.66 µM

SMILES | Potency
O=C1NCN(c2ccccc2)C12CCN(C(c1ccccc1)c1nnnn1Cc1ccccc1)CC2 (stereo not drawn) | inconclusive [cytotoxic, single point]
COCCCNC(=O)c1c(NC(=O)c2ccco2)n(Cc2ccccc2)c2nc3ccccc3nc12 | inconclusive [cytotoxic, single point]
COc1ccc(CCNCc2ccc(OC)c(OC)c2OC)cc1 | inconclusive [cytotoxic, single point]
CCCCn1c(N)c(C(=O)NCc2cccs2)c2nc3ccccc3nc21 | inconclusive [cytotoxic, single point]
COc1cc2c(cc1O)CC[C@@H]1[C@@H]2CC[C@]2(C)[C@@H](O)CC[C@@H]12 | inconclusive [cytotoxic, full curve]
CCN(CC)c1ccc(N=Cc2c(O)n(Cc3ccccc3)c(=O)[nH]c2=O)cc1 | inactive
Nc1c(C(=O)NCc2ccco2)c2nc3ccccc3nc2n1Cc1ccc(F)cc1 | inconclusive [cytotoxic, single point]
CC(=O)OC1CC[C@]2(C#N)[C@H]3CC[C@]4(C)[C@H](C5C=CC(=O)O5)CCC4(O)C3CCC2(O)C1 (stereo partly drawn) | active: 14.6 µM
Oc1c(Cl)c(Cl)c(Cl)c(Cl)c1Cl | inconclusive [cytotoxic, single point]
COc1ccc(-n2nnnc2C(c2ccccc2OC(F)(F)F)N2CCC3(CC2)C(=O)NCN3c2ccccc2)cc1 (stereo not drawn) | active: 16.4 µM
CCNS(=O)(=O)c1ccc(NC(=O)Nc2cccc(C(F)(F)F)c2)cc1 | active: 11.2 µM
Cc1ccc(NC(=S)NC2CC3CCC(C2)N3Cc2ccco2)cc1C (stereo not drawn) | inconclusive [cytotoxic, single point]
C=CCC1(CCCCC)C(=O)NC(=S)NC1=O | inactive
COc1cccc(N=Cc2c(O)n(Cc3ccco3)c(=O)[nH]c2=O)c1 | inconclusive [cytotoxic, partial curve]
COc1ccc(NC(=O)C2C3CCC(O3)C2C(=O)O)c(OC)c1 (stereo not drawn) | inconclusive [cytotoxic, partial curve]
COc1ccc(C[C@H]2NC[C@H](O)[C@H]2OC(C)=O)cc1 | active: 0.164 µM
CCCCn1c(O)c(/C=N/NC(=O)c2ccncc2)c(=O)[nH]c1=S | inactive
COc1ccc2c(c1)/C(=C/c1cnc[nH]1)C(=O)N2 | active: 14.6 µM
O=c1[nH]c2ccccc2n1C1CCN(C(c2nnnn2Cc2ccccc2)C2CC2)CC1 (stereo not drawn) | active: 20.6 µM
COc1ccccc1OCC(=O)Nc1ccc(Cl)cc1C(=O)c1ccccc1 | inactive
CCN1CCN(c2ccc(NC(=O)C(C)C)cc2Cl)CC1 | inactive
